Assay results as given in PubChem BioAssay AID624171 (National Center for Advancing Translational Sciences (NCATS), 2012).
Out of some 410,000 compounds screened, about 1,200 (0.29%) were called active. Inconclusive means that the source gave no clear call. Such entries were picked first, then a sample of the others. Calls come from the whole dose curve; as a rule, active = well fitted activation curve with a large enough effect; inconclusive = small, poorly fitted or top-dose-only effect; inactive = flat fitted curve, though single readings scatter. Potencies beside an inconclusive call are fits to weak or partial responses and may not hold up.

assay: qHTS of Nrf2 Activators; conditions: AREc32 ARE-luciferase reporter (MCF7-derived line), luminescence, 24 h; series mostly up to 46.1 µM; note: nearly all actives have a fitted effect of over 65% in size
Method in brief: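 For detection, Steady-Glo was added and plates sat 30 min at RT; before that, AREc32_Fluc cells grown overnight in OPTI-MEM/5% FBS had been treated with 23 nL compound for 24 hr at 37 deg C.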
Potency is the fitted concentration of half-maximal effect; tags give direction and shape of the fitted curve.

SMILES	Potency
Cc1csc(NC(=O)/C=C/c2ccco2)n1	active: 1.78 µM
CCN(CC)S(=O)(=O)c1ccc(OC)c(NC(=O)/C=C/c2ccco2)c1	inconclusive: 5.01 µM [activator, partial curve]
COc1cc(C(C#N)N2N=C(c3ccccc3)CC2c2ccccc2)ccc1O (stereo not drawn)	inconclusive: 17.8 µM [activator, single point]
COc1cc(C)cc2c1OC(c1ccccc1)CC2=O (stereo not drawn)	inconclusive: 12.6 µM [activator, partial curve]
O=c1[nH]nc(Cc2ccc(-c3cccc(Cl)c3)o2)c2ccccc12	inactive
CCn1cc2nc(SCc3c(F)cccc3Cl)n(CCc3ccccc3)c(=O)c2n1	inactive
C/C(=N\NC(=O)c1cccc(S(=O)(=O)N2CCCC2)c1)c1ccco1	inconclusive: 5.01 µM [activator, full curve]
Cn1c(C(=O)NCCc2ccccc2)cc2cc(S(=O)(=O)N3CCCCC3)ccc21	inactive
Cc1cccc(NC(=O)C(=O)NCC(c2cccnc2)N2CCN(Cc3ccccc3)CC2)c1 (stereo not drawn)	inactive
O=C(CCc1ccc(S(=O)(=O)NCCc2ccccc2)cc1)NCc1ccco1	inconclusive: 35.5 µM [activator, partial curve, poor fit]
Cn1c(=O)c2c(nc(CN3CCc4ccccc4C3)n2CC(=O)c2ccccc2)n(C)c1=O	inactive
O=C(NC12CC3CC(CC(C3)C1)C2)c1ccco1	inconclusive: 31.6 µM [activator, single point]
COc1ccc(/C=C/C2=Nc3ccccc3NC(C)(C)C2)cc1OC	inconclusive: 15.8 µM [activator, single point]
Cc1ccc(C(=O)Nc2nnc(SCC(=O)N3CCCc4ccccc43)s2)cc1	inactive
Cc1n[nH]c(=S)n1/N=C/c1ccccc1OCc1ccc(Cl)cc1Cl	inactive
CC(=O)c1sc(NC(=O)c2ccccc2F)nc1C	inconclusive: 3.55 µM [activator, partial curve, poor fit]
CC(C#N)Sc1ncnc2sc(-c3ccccc3)cc12 (stereo not drawn)	inconclusive: 15.8 µM [activator, partial curve, poor fit]
CC(C)(C)c1cc(CNC2CS(=O)(=O)C[C@@H]2O)cc(C(C)(C)C)c1O (stereo partly drawn)	inconclusive: 31.6 µM [activator, partial curve, poor fit]
CN1CCN(c2ccc(-c3cc(NC=O)c4ncc(-c5ccc(F)cc5)n4c3)cc2)CC1	inconclusive: 14.1 µM [activator, single point]
Nc1ccc2nc(-c3ccc(Cl)cc3)[nH]c2c1	inactive
O=S1(=O)C=C(Sc2nc3cc(Cl)ccc3o2)c2ccccc21	active: 8.91 µM
O=C(/C(C=Nc1cccc(C(F)(F)F)c1)=C(/O)c1ccco1)C(F)(F)F	active: 7.94 µM
O=C(N=Nc1c(O)[nH]c2ccccc12)c1cc(-c2cccs2)[nH]n1	inactive
COc1cc(NC(=O)c2cc(-c3ccco3)on2)c(OC)cc1Cl	inconclusive: 0.794 µM [activator, full curve, poor fit]
Cc1ccsc1-c1ccnc(-n2cccc2)n1	active: 5.01 µM

SMILES	Potency
O=C(Nc1ccc2c(c1)CCC2)c1ccc(Br)o1	inconclusive: 11.2 µM [activator, partial curve, poor fit]
Cc1cc(C)nc(NC(=NCCc2c[nH]c3ccccc23)NC(=O)C(C)(C)C)n1	inactive
CCOC(=O)c1cc(-c2ccco2)nc2c1c(C)nn2CCC#N	inconclusive: 11.2 µM [activator, partial curve, poor fit]
O=C1/C(=C\c2ccc(Cl)cc2)CCC1CNc1ccc(Cl)cc1 (stereo not drawn)	inconclusive: 2.51 µM [activator, full curve, poor fit]
CCOC(=O)c1c(NC(=O)c2cc(=O)c3c(C)cc(C)cc3o2)sc(C)c1C	inactive
Cn1c(=O)n(C)c2cc(NS(=O)(=O)c3ccc(Cl)cc3)c(NCc3ccccc3)cc21	inconclusive: 12.6 µM [activator, partial curve]
O=C(Nc1ccc(N2CCOCC2)c(Cl)c1)c1ccc([N+](=O)[O-])o1	inconclusive: 4.47 µM [activator, single point]
CCCn1c(NC(=O)c2ccc([N+](=O)[O-])o2)nc2ccccc21	active: 12.6 µM
O=C(CSc1nc2c([nH]c3ccccc32)c(=O)n1-c1ccccc1)Nc1ccccc1C(F)(F)F	inactive
CCc1ccc(NC(=O)Nc2ccsc2C(=O)OC)cc1	active: 12.6 µM
Cc1cc(NC(=O)c2ccccc2F)nc2c1c(=O)oc1ccccc12	inconclusive: 1.41 µM [activator, full curve, poor fit]
COCc1cc(=O)[nH]c(Nc2nc3ccccc3o2)n1	inconclusive: 22.4 µM [activator, single point]
COc1cc2cc3c(N)c(C(=O)NCc4ccco4)sc3nc2cc1OC	inconclusive: 15.8 µM [activator, single point]
CCCCN(C)c1nc(-c2ccco2)c2c(c1C#N)CC(C)(C)OC2	inconclusive: 31.6 µM [activator, single point]
O=C(Nc1cccc(F)c1)c1sc(Cl)nc1-c1ccccc1	inconclusive: 15.8 µM [activator, single point]
COc1cc(C#Cc2ccc3cc(CCO)oc(=O)c3c2)cc(OC)c1	inactive
O=C(Nc1ccc(Cl)c(NC(=O)c2cccs2)c1)c1ccco1	inconclusive: 11.2 µM [activator, partial curve, poor fit]
CCOC(=O)c1cnc2c(OC)cccc2c1N1CCN(c2ccccc2F)CC1	inactive
COc1ccc(CCNC(=O)CCCCn2c(=O)c3ccccc3n(Cc3cccc(C)c3)c2=O)cc1OC	inactive
S=c1[nH]nc(COc2ccccc2)n1/N=C/C(Cl)=C/c1ccccc1	inconclusive: 3.55 µM [activator, full curve, poor fit]
O=[N+]([O-])c1cccc2ccc(/C=C/c3ccc(C(F)(F)F)cc3)nc12	inconclusive: 3.98 µM [activator, partial curve, poor fit]
CC(=Nc1ccc(O)cc1)c1sc2ccccc2c1O	inconclusive: 20 µM [activator, single point]
O=C(Oc1c(CN2CCOCC2)cc(Cl)c2cccnc12)c1ccccc1Cl	inconclusive: 5.62 µM [activator, single point]
COc1ccc(N2CCN(CCC(=O)c3ccc4ccccc4c3)CC2)cc1	inconclusive: 11.2 µM [activator, partial curve]
COC(=O)Nc1ccc2c(c1)N(C(=O)CCCl)c1ccccc1S2	inconclusive: 17.8 µM [activator, single point]

SMILES	Potency
Cc1ccc(C(=O)c2sc3nc4c(cc3c2N)CCC4)cc1	inactive
C=C1CC(Cn2cc(Br)c(=O)[nH]c2=O)(c2ccc(-c3ccccc3)cc2)OC1=O (stereo not drawn)	inconclusive: 3.55 µM [activator, partial curve, poor fit]
O=C(N/N=C\c1cn[nH]c1-c1ccccc1)c1ccc([N+](=O)[O-])cc1	inactive
CCCCCOc1ccc(C(=O)CCN2CCOCC2)cc1	active: 20 µM
N#CC(C#N)=C1C=CC=CN1/C(=C\c1ccco1)C(=O)c1ccc(Cl)cc1	inconclusive: 5.62 µM [activator, single point]
Oc1ccccc1-c1nc(NCc2ccco2)c2ccccc2n1	inconclusive: 6.31 µM [activator, partial curve]
O=C(NC(=S)Nc1ccccc1N1CCOCC1)c1ccc(-c2cccc(Cl)c2)o1	inactive
O=C(Nc1ccc(Cl)cc1)c1cccs1	inconclusive: 17.8 µM [activator, partial curve, poor fit]
COc1cccc(NC(=O)C2CCN(Cc3cnn(-c4ccccc4)c3-n3cccc3)CC2)c1	inactive
Cc1cc(=O)[nH]c(N/N=C/c2ccc(Br)s2)n1	inconclusive: 14.1 µM [activator, partial curve, poor fit]
CCOC(=O)c1nnc2cc(-c3ccccc3)nn2c1C	inconclusive: 20 µM [activator, single point]
C/C(=N\NC(=O)CN1CCN(c2ccc(F)cc2)CC1)c1ccco1	inactive
COc1ccc(C(=O)CN2C(=O)N(c3ccc(C(C)=O)cc3)S(=O)(=O)c3ccccc32)cc1	inactive
N/C(=N\OC(=O)c1ccco1)c1cccc(Br)c1	active: 4.47 µM
Cc1cc(C)nc(NC(=O)/C=C/c2ccccc2Cl)n1	active: 8.91 µM
CCCc1nc2oc3ccccc3c(=O)c2c(=O)n1-c1ccccc1	inconclusive: 11.2 µM [activator, partial curve, poor fit]
Cc1cc(OC(=O)c2ccco2)c(Sc2ccccc2[N+](=O)[O-])c(=O)o1	inactive
O=C(CCl)NCc1c(Cl)cccc1-n1cccc1	inconclusive: 17.8 µM [activator, single point]
COc1ccc2nc(C)cc(Sc3nc4ccccc4s3)c2c1	inconclusive: 22.4 µM [activator, single point]
CCc1ccc(/C=C/C(=O)c2cc(Br)ccc(=O)c2O)cc1	inconclusive: 15.8 µM [activator, single point]
Cn1nc(C(=O)N2CCN(S(=O)(=O)c3ccc(Cl)cc3)CC2)c2ccccc2c1=O	inactive
Cc1ccc(NC(=O)N(Cc2cn(C)c3ccccc23)C2CCCCC2)cc1C	inactive
CC(C)NC(=O)c1ccc(-n2c(-c3ccccc3)cc3c2CCCCC3)cc1	active: 12.6 µM
